The list shows a part of the results.

T1: UNK ZnF1-3 (human, UniProt Q9C0B0 31-174)
T1 sequence: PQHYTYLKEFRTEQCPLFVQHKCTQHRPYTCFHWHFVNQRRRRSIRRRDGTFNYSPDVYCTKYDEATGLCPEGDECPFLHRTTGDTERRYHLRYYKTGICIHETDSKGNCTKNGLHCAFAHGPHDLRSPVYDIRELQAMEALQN

B1: chr2:202488911:202488912:-_ENSG00000155755_ENST00000286196|hu_mus|hu_hu_hu_mus_False|38_108 (ssRNA)
RNA: GGGAGUUCUACAGUCCGACGAUCAUUUAACAUUUUUUCAUAAUCUCCAGUAGCAUUUCAGCAUUAUGUAACAAAAGCUCAAUUGUAAAUACAUGUAUAUACAUCUUAUACACUUAAAAACACGAGUGGGGAGCGCAGGCGCCACAACAGAGGAUUGAGCAUCA
B2: chr3:176740097:176740098:-_ENSG00000177565_ENST00000430069|hu_mus|hu_hu_hu_mus_True|48_48 (ssRNA)
RNA: GGGAGUUCUACAGUCCGACGAUCUGUUUUGUAUACCACAAAAGGAGGCACUUUCAGUAUCUGCAAAAGGUGUUUAGUCCUAAAACAUACUUACCUAGAGGAUAACUCAGGAAAACAAUCUGUUACACUCUAAGACCUACUCCACAACAGAGGAUUGAGCAUCA
B3: chr11:4127340:4127341:+_ENSG00000167325_ENST00000300738|hu_mus|hu_hu_hu_mus_False|58_68 (ssRNA)
RNA: GGGAGUUCUACAGUCCGACGAUCGGCAUAGUCAGGGUGCUUCGUGGUCAAGGUCGCGGCUGUCUCAGCAGCCAAAGUAUCUAGUUCCACUGUGGUGACCCCACUAUAUAGGCCUUGGAUUACUUUCAUGGUGAUCUGAGCAGGCAACAGAGGAUUGAGCAUCA
B4: chr14:66974463:66974464:+_ENSMUSG00000022044_ENSMUST00000074523|mus_hu|mus_mus_mus_hu_False|18_38 (ssRNA)
RNA: GGGAGUUCUACAGUCCGACGAUCUUGUAGGACGACUUAUUCAGGGGAUCGGCCAGGAAGCAGGAGCAGAACAAGGACACCAGCGGGAGCUCCUUCAUCUUCUCCUUGUAGGCAGCAAGAGUCAUGUUUCUGGGAUCUGGUGGCCAACAGAGGAUUGAGCAUCA
B5: chr4:25749455:25749456:-_ENSG00000091490_ENST00000264868|hu_hu|hu_hu_hu_mus_False|1_38 (ssRNA)
RNA: GGGAGUUCUACAGUCCGACGAUCGCACUAUGACCUCUAGAAAAAUCCACAGGGGGAAAAAAUGUAAACCAAUGUACAAUGUUAUCGCCUUCCCUGUAUUUCCAGGCUUUGUCUCAAGGCUCCUUCUAGCUGCUGGACUGCUAGCAACAGAGGAUUGAGCAUCA
B6: chr6:15520614:15520615:+_ENSG00000008083_ENST00000341776|hu_hu|FALSE|FALSE (ssRNA)
RNA: GGGAGUUCUACAGUCCGACGAUCUUUUCUAAGUACAAAAAAAAGUUCAACAGUUUAAUGCUAAAACAAAAUUAGUUCUCUAAAACCAGAAGAAAAUCUUCUUUAGAGCUAGUGCAAAGACAGCUUGAAUCCUACAGCAAGUACCAACAGAGGAUUGAGCAUCA
B7: chr2:42509997:42509998:+_ENSG00000143924_ENST00000318522|hu_mus|hu_hu_hu_mus_True|58_58 (ssRNA)
RNA: GGGAGUUCUACAGUCCGACGAUCUCGCUGAGUCCUCUCCUCAUAAUUAAACAGGACUACCACUGAGGCGAUAAAAUAAACUAUUUUCCCUGUGGGAAGCAGGUAUACAUUCGCUCUACAGUCCUUUCCUCGAUAACCGUAUACCAACAGAGGAUUGAGCAUCA
B8: 34922018_34922138_569_3pUTR_ENSG00000159140_ENST00000381679|human|control|control (ssRNA)
RNA: GGGAGUUCUACAGUCCGACGAUCUGUGUGGCUCUGAUACCUCCAUUGAUACUACAGGAGGUUCUAGCACAACUGCAGGGGAUUCAUUGGUCUCAGAUGGGCCAAAUGCUCUUGUAGGAAGCUCCAGCGCCACAGCUGAAGGUUCAACAGAGGAUUGAGCAUCA
B9: chr1:220276048:220276049:+_ENSG00000067704_ENST00000302637|hu_hu|hu_hu_hu_mus_True|28_78 (ssRNA)
RNA: GGGAGUUCUACAGUCCGACGAUCGCAAAUUGCCUGGUUGGCGGGAAUUGUCCAAGGUUGUGUGGUCCAAACUAAAACGCUAACAGGGGAUGAGGCAUCUGUAAGAGAUGCCAAUUUCGGAGGAGGUCUCAGGAGGGGGAAUCUCAACAGAGGAUUGAGCAUCA
B10: 149136987_149137107_160_5pUTR_ENSMUSG00000068250_ENSMUST00000095319|mouse|control|control (ssRNA)
RNA: GGGAGUUCUACAGUCCGACGAUCGCCCACCUGAGACAGGCCAUCGGGUGGAGCCGCCAGCCCCACGGUGCACCACAGUCCUCAGAGACCAGACACAAAGCCGGGACAAGGACUAGGAGCCAGCAGGACGUGAGGGAAGGGACUCAACAGAGGAUUGAGCAUCA
B11: 34756928_34757048_3359_CDS_ENSMUSG00000039967_ENSMUST00000047950|mouse|control|control (ssRNA)
RNA: GGGAGUUCUACAGUCCGACGAUCACCUUUUUUCGUCUUGCGCUGCAGUUUAAAAGCAGCAUAUUGGUCAGGGUGUGCUGUCUUCAUGUGUUUUCCAAUACUCUGUGAAGAGUUAUAUGUUCGAGUGCAUCCCUCAACCUGGCACAACAGAGGAUUGAGCAUCA
B12: chr12:48362563:48362564:+_ENSG00000134291_ENST00000256686|hu_hu|hu_hu_hu_mus_False|28_78 (ssRNA)
RNA: GGGAGUUCUACAGUCCGACGAUCUCCGUCAAGCCCUUCGAUAGACCCUUGCGGGGGUGGUAAAAACCACUUUGUAUGGGGAAGGAAAAGAAACGCCAAAAACUUUCUUUCUUUCUUGGGUGGGGUGAGGCGGGAGGGGGAGGUCAACAGAGGAUUGAGCAUCA
B13: chr14:53325200:53325201:-_ENSG00000073712_ENST00000341590|hu_hu|FALSE|FALSE (ssRNA)
RNA: GGGAGUUCUACAGUCCGACGAUCGUUUUGGUCUUUUGCACGUGUUGAGAGAAAUAUGUAGCCACCAAUGAAUUCAUGAACCACUUUGCAAUCUACUUCAGUACAAAUGAAGGACAAUCGUACUUCAUCUGCAAACUCUACGGUCAACAGAGGAUUGAGCAUCA
B14: 105182201_105182321_1586_CDS_ENSMUSG00000031673_ENSMUST00000075190|mouse|control|control (ssRNA)
RNA: GGGAGUUCUACAGUCCGACGAUCAGGCUCAUCGGCAUCUUCUACUGAAAUCUUGACGGUCACAGUGUCCUUGAAAGGUCCAUUGCUGAUGAACUUCGGAUCAAUGUGAACAUUGGCGGCCUCUAUCUUCAAGCUAUAAGCUCUCAACAGAGGAUUGAGCAUCA
B15: chr16:70413849:70413850:-_ENSG00000157350_ENST00000342907|hu_hu|FALSE|FALSE (ssRNA)
RNA: GGGAGUUCUACAGUCCGACGAUCGGCCUCCCAAAGUGCUGGGAUGACAGGUGUGAGCCACCGUACCUGGCGGGAUUCAUGAUUUAAAGCAAAAGAAAAAAAAGAAAUAAAUUAUUCUGCUCAAUACUGUUUGGCAUAAUUGCACAACAGAGGAUUGAGCAUCA
B16: chr9:110092072:110092073:+_ENSG00000119318_ENST00000416373|hu_hu|FALSE|FALSE (ssRNA)
RNA: GGGAGUUCUACAGUCCGACGAUCCUGUAUUUAUCCCUGCCCUGUAUCCUAGAUCCCUCCCUCCCCACCCCCAACAAUCUACUACCUUAUACCAAGUAUUGUGGAUAUGAGCCCAAGUCAUCCCAGACAAUCCAGUGAACAAGUCAACAGAGGAUUGAGCAUCA
B17: chr12:29513650:29513651:+_ENSMUSG00000036613_ENSMUST00000035657|mus_mus|motif|central (ssRNA)
RNA: GGGAGUUCUACAGUCCGACGAUCCUCCAGGGUCUGAGCAGUGCUUGCAGGGUCGUCAGGGGACUCGUGGCUACCGGAUUCGGAUUCCUUGGGCAUCCUCCACACAGCUGCACACGCCUGGACUCGACUGUCUGUAGUUUUGUUCAACAGAGGAUUGAGCAUCA
B18: chr2:69673326:69673327:+_ENSMUSG00000042155_ENSMUST00000053087|mus_mus|FALSE|FALSE (ssRNA)
RNA: GGGAGUUCUACAGUCCGACGAUCUUUUCCGUCAGAAGUAGUUUUUAUUUAAAGUAAAAAUUAAGUAUUCUCUCUUUAAAAACAAAACAAUAAAACCAACCUGGCGUGGAGCAGACAGUCUCACGUUUAGAUGAGUGACUUGAGCAACAGAGGAUUGAGCAUCA
B19: 44165391_44171860_221_3pUTR_ENSMUSG00000035696_ENSMUST00000045793|mouse|control|control (ssRNA)
RNA: GGGAGUUCUACAGUCCGACGAUCGGCGCUGUCUCUUAGGACUUGGACUAUCUUCACUCUGGAAGAAAGCUUUGAAGUGAGCAUCCUCUUGAAUGGUAGUGUUCUGAUCACUUGGGAGAAGAGGGAACAGGCUCUGAAGUCUCACAACAGAGGAUUGAGCAUCA
B20: chr4:6882955:6882956:+_ENSG00000170871_ENST00000425103|hu_hu|FALSE|FALSE (ssRNA)
RNA: GGGAGUUCUACAGUCCGACGAUCACCGCAGUCGGAAGGAAAAUUAACUGCAGUUAAGAUGCAAAAAGCAGUGAUACUUCUAAGACAAGCACAUGCACACCCAUUCUUGAUUUGACAACACAAUCUAGUCUAUUUCAAAUAGCCCAACAGAGGAUUGAGCAUCA
B21: chr19:3980662:3980663:-_ENSG00000167658_ENST00000309311|hu_hu|FALSE|FALSE (ssRNA)
RNA: GGGAGUUCUACAGUCCGACGAUCGAAGACUCGUCCAAAGGCGUAGAACCGACCUUUGUCGGAGGUUGGCACCAUUUUGGAAAUAUACAUCAUAAGAGGGCCUUUGGGGUCACAGCUUUUAAUGCCCAUGGCAGCCUCGUCGUCCAACAGAGGAUUGAGCAUCA
B22: chr2:179515052:179515053:+_ENSMUSG00000000305_ENSMUST00000000314|mus_hu|mus_mus_mus_hu_False|18_78 (ssRNA)
RNA: GGGAGUUCUACAGUCCGACGAUCGCUGUCCCAUGCAGUCACCGUGAACGCCACCUGCUCUGAGGGGACCUGCAGCUCCCGGGUGGCGAAGACUGUCCCAUCUGCCCCAACUUUGAAGUCCAAGCUGUUGGUCUCAUAUUGUGUCAACAGAGGAUUGAGCAUCA

For this assay, the target named is T1, UNK ZnF1-3. Description: nsRBNS (natural sequence RNA bind-n-seq); RBNS binding buffer (assumed for nsRBNS): 25 mM Tris pH 7.5, 150 mM KCl, 3 mM MgCl2, 0.01% Triton X-100, 500 ug/ml BSA, 20 U/ml SUPERase-In, 4 C; UNK is unkempt and MSI1 is Musashi-1; names of the RNAs are library labels; protein concentration not given here; high values mean tight binding.
For B1, the binding signal turned out to be 0.773 enrichment R. For the molecule B2, the binding signal was 0.864 enrichment R. To B3 belongs 0.957 enrichment R. To B4 belongs 1.9 enrichment R; to B5, 1.23 enrichment R; to B6, 1.03 enrichment R.

B7 yielded a binding signal of 1.75 enrichment R.

As to B8, the binding signal came to 0.683 enrichment R. To B9 belongs 1.99 enrichment R; to B10, 1.19 enrichment R.

For B11, the binding signal is 0.561 enrichment R. In turn, B12 had a binding signal of 1.39 enrichment R. The value for B13 was 1.01 enrichment R. The value for B14 was 1.03 enrichment R. To B15 belongs 2.69 enrichment R; to B16, 0.723 enrichment R. B17 came in with a binding signal of 0.831 enrichment R. The value for B18 was 0.986 enrichment R. In turn, B19 came in with a binding signal of 1.32 enrichment R. In turn, B20 had a binding signal of 1.28 enrichment R. In the case of B21, the binding signal was determined as 1.69 enrichment R. To B22 belongs 0.722 enrichment R.
